# Where a name gives a salt, the structure may show the parent alone. The list shows a part of the results. Many values rest on one well or one pass, so single values are uncertain.
# System: OVCAR4
# Test: log2 surviving fraction (library drug vs vehicle, or drug + carboplatin vs carboplatin alone; relative to plate median); ovarian cancer lines: OVCAR4 is platinum-sensitive and Ov4Carbo platinum-resistant; higher = more cell survival
# Details: library drug concentration 10 µM; 7 days; carboplatin co-treatment 5 µM
row,Compound,log2 surviving fraction
1,O=C1NC(=O)C(c2ccccc2)(c2ccccc2)N1 [Phenytoin (Lepitoin)],0.234
2,CN1CCN(c2c(F)cc3c(=O)c(C(=O)O)cn(CCF)c3c2F)CC1 [Fleroxacin (Quinodis)],-0.0688
3,CN(C)CCCOc1nn(Cc2ccccc2)c2ccccc12 [Benzydamine Hydrochloride],-1.01
4,Cc1cc(C2CCCCC2)n(O)c(=O)c1 [Ciclopirox (Penlac)],-6.76
5,CN1CC(=O)NC1=N [Creatinine],0.769
6,Nc1ccc(C(=O)O)c(O)c1 [Aminosalicylate sodium],-0.511
7,COc1c(N2C[C@@H]3CCCN[C@@H]3C2)c(F)cc2c(=O)c(C(=O)O)cn(C3CC3)c12 [Moxifloxacin hydrochloride],0.821
8,CC(=O)Oc1ccccc1C(=O)O [Aspirin (Acetylsalicylic acid)],0.856
9,OCC(O)CN1CCN(c2ccccc2)CC1 (stereo unspecified) [Dropropizine],1.09
10,"O=S(=O)(O)CCS [Mesna (Uromitexan, Mesnex)]",0.53
11,C[C@]12CC[C@H]3[C@@H](CC[C@@]45O[C@@H]4C(O)=C(C#N)C[C@]35C)[C@@H]1CC[C@@H]2O [Trilostane],-1.58
12,CCOc1nc2cccc(C(=O)O)c2n1Cc1ccc(-c2ccccc2-c2noc(=O)[nH]2)cc1 [Azilsartan (TAK-536)],0.325
13,CC(=O)OC1CN2CCC1CC2 (stereo unspecified) [Aceclidine HCl],0.278
14,CC1(C)[C@@H](OC(=O)CCC(=O)O)CC[C@]2(C)[C@H]3C(=O)C=C4[C@@H]5C[C@@](C)(C(=O)O)CC[C@]5(C)CC[C@@]4(C)[C@]3(C)CC[C@@H]12 [Carbenoxolone Sodium],1.64
15,C=CC[N+]1([C@H]2C[C@H]3[C@@H]4CC[C@H]5C[C@H](O)[C@@H](N6CCOCC6)C[C@]5(C)[C@H]4CC[C@]3(C)[C@H]2OC(C)=O)CCCC1 [Rocuronium bromide],1.37
16,Cc1cc(C(C#N)c2ccc(Cl)cc2)c(Cl)cc1NC(=O)c1cc(I)cc(I)c1O (stereo unspecified) [Closantel],-0.776

# System: Ov4Carbo
# Test: as above
# Details: library drug concentration 10 µM; 7 days; carboplatin co-treatment 0 µM
row,Compound,log2 surviving fraction
1,O=C(O)CCCN1CCC(O[C@@H](c2ccc(Cl)cc2)c2ccccn2)CC1 [Bepotastine Besilate],-0.322
2,COC(=O)N/N=C/c1c[n+]([O-])c2ccccc2[n+]1[O-] [Carbadox],0.791
3,CCOC(=O)CC(=O)N1CCSC1COc1ccccc1OC (stereo unspecified) [Moguisteine],0.146
4,CCC1(c2ccc(N)cc2)CCC(=O)NC1=O (stereo unspecified) [Aminoglutethimide (Cytadren)],1.18
5,CC(=O)O[C@H]1C[C@@H]2CC[C@@H]3[C@H](CC[C@@]4(C)[C@H]3C[C@H]([N+]3(C)CCCCC3)[C@@H]4OC(C)=O)[C@@]2(C)C[C@@H]1[N+]1(C)CCCCC1 [Pancuronium (Pavulon)],0.489
6,CC(NC(C)(C)C)C(=O)c1cccc(Cl)c1 (stereo unspecified) [Amfebutamone (Bupropion)],2.07
7,CCCc1nc2c(C)cc(-c3nc4ccccc4n3C)cc2n1Cc1ccc(-c2ccccc2C(=O)O)cc1 [Telmisartan (Micardis)],-0.362
8,Clc1ccc2nsnc2c1NC1=NCCN1 [Tizanidine HCl],1.08
9,CN1C2CCC1CC(OC(=O)C(O)c1ccccc1)C2 (stereo unspecified) [Homatropine Bromide],0.746
10,CCc1cc2c(cc1CC)CC(NC[C@H](O)c1ccc(O)c3[nH]c(=O)ccc13)C2 [Indacaterol Maleate],-1.58
11,OCCOCCN1CCN(C(c2ccccc2)c2ccc(Cl)cc2)CC1 (stereo unspecified) [Hydroxyzine 2HCl],0.356
12,COc1cccc(N(C)C(=S)Oc2ccc3c(c2)CCCC3)n1 [Liranaftate],-0.406
13,C=CCN1CC[C@]23c4c5ccc(O)c4O[C@H]2C(=O)CC[C@@]3(O)[C@H]1C5 [Naloxone HCl],1.42
14,C[C@@H]1O[C@@H](O[C@H]2C[C@@H](O)[C@]3(CO)[C@H]4[C@H](O)C[C@]5(C)[C@@H](C6=CC(=O)OC6)CC[C@]5(O)[C@@H]4CC[C@]3(O)C2)[C@H](O)[C@H](O)[C@H]1O [Ouabain],-6.8
15,NC(=O)N1c2ccccc2C=Cc2ccccc21 [Carbamazepine (Carbatrol)],0.219
16,CCCN(CCC)CCc1cccc2c1CC(=O)N2 [Ropinirole HCl],0.402
17,C[C@]12C=CC(=O)C=C1CC[C@H]1[C@@H]3C[C@@H](O)[C@](O)(C(=O)CO)[C@@]3(C)C[C@H](O)[C@@]12F [Triamcinolone (Aristocort)],0.188
18,CCN(Cc1ccncc1)C(=O)C(CO)c1ccccc1 (stereo unspecified) [Tropicamide],0.622
19,CC(C)C(=O)Oc1ccc(CO)cc1[C@H](CCN(C(C)C)C(C)C)c1ccccc1 [Fesoterodine fumarate (Toviaz)],0.32
20,CC(=O)O[C@]1(C(C)=O)CC[C@H]2[C@@H]3C[C@H](C)C4=CC(=O)C=C[C@]4(C)[C@@]3(F)[C@@H](O)C[C@@]21C [Fluorometholone Acetate],2.02

row,Compound,log2 surviving fraction
1,COC(=O)C1=CCCN(C)C1 [Arecoline],-0.126
2,c1ccc2[nH]c(-c3cscn3)nc2c1 [Thiabendazole],0.416
3,CCN(CC)CCOC(=O)c1ccc(N)cc1 [Procaine (Novocaine) HCl],0.771
4,COC(=O)C1=C(C)NC(C)=C(C(=O)OCCN(C)Cc2ccccc2)C1c1cccc([N+](=O)[O-])c1 (stereo unspecified) [Nicardipine HCl],-2.52
5,O=C1NC(=O)C(c2ccccc2)(c2ccccc2)N1 [Phenytoin (Lepitoin)],0.245
6,CN1CCN(c2c(F)cc3c(=O)c(C(=O)O)cn(CCF)c3c2F)CC1 [Fleroxacin (Quinodis)],0.133
7,CN(C)CCCOc1nn(Cc2ccccc2)c2ccccc12 [Benzydamine Hydrochloride],-1.1
8,Cc1cc(C2CCCCC2)n(O)c(=O)c1 [Ciclopirox (Penlac)],-7.39
9,CN1CC(=O)NC1=N [Creatinine],1.1
10,Nc1ccc(C(=O)O)c(O)c1 [Aminosalicylate sodium],0.0677
11,COc1c(N2C[C@@H]3CCCN[C@@H]3C2)c(F)cc2c(=O)c(C(=O)O)cn(C3CC3)c12 [Moxifloxacin hydrochloride],0.322
12,CC(=O)Oc1ccccc1C(=O)O [Aspirin (Acetylsalicylic acid)],-0.6
13,OCC(O)CN1CCN(c2ccccc2)CC1 (stereo unspecified) [Dropropizine],1.22
14,"O=S(=O)(O)CCS [Mesna (Uromitexan, Mesnex)]",0.674
15,C[C@]12CC[C@H]3[C@@H](CC[C@@]45O[C@@H]4C(O)=C(C#N)C[C@]35C)[C@@H]1CC[C@@H]2O [Trilostane],0.576
16,CCOc1nc2cccc(C(=O)O)c2n1Cc1ccc(-c2ccccc2-c2noc(=O)[nH]2)cc1 [Azilsartan (TAK-536)],-0.057
17,CC(=O)OC1CN2CCC1CC2 (stereo unspecified) [Aceclidine HCl],1.25
18,CC1(C)[C@@H](OC(=O)CCC(=O)O)CC[C@]2(C)[C@H]3C(=O)C=C4[C@@H]5C[C@@](C)(C(=O)O)CC[C@]5(C)CC[C@@]4(C)[C@]3(C)CC[C@@H]12 [Carbenoxolone Sodium],0.419
19,C=CC[N+]1([C@H]2C[C@H]3[C@@H]4CC[C@H]5C[C@H](O)[C@@H](N6CCOCC6)C[C@]5(C)[C@H]4CC[C@]3(C)[C@H]2OC(C)=O)CCCC1 [Rocuronium bromide],0.887
20,Cc1cc(C(C#N)c2ccc(Cl)cc2)c(Cl)cc1NC(=O)c1cc(I)cc(I)c1O (stereo unspecified) [Closantel],0.995

# Reference: the supplement of paper PMC8047034
